About 2,200 (0.71%) of roughly 310,000 compounds showed an effect of 50% or more. The effect is printed as a negative number. The list shows a part of the results.

Chain of human ether-à-go-go-related gene (hERG) potassium channel (Q12809 whole entry, looked up): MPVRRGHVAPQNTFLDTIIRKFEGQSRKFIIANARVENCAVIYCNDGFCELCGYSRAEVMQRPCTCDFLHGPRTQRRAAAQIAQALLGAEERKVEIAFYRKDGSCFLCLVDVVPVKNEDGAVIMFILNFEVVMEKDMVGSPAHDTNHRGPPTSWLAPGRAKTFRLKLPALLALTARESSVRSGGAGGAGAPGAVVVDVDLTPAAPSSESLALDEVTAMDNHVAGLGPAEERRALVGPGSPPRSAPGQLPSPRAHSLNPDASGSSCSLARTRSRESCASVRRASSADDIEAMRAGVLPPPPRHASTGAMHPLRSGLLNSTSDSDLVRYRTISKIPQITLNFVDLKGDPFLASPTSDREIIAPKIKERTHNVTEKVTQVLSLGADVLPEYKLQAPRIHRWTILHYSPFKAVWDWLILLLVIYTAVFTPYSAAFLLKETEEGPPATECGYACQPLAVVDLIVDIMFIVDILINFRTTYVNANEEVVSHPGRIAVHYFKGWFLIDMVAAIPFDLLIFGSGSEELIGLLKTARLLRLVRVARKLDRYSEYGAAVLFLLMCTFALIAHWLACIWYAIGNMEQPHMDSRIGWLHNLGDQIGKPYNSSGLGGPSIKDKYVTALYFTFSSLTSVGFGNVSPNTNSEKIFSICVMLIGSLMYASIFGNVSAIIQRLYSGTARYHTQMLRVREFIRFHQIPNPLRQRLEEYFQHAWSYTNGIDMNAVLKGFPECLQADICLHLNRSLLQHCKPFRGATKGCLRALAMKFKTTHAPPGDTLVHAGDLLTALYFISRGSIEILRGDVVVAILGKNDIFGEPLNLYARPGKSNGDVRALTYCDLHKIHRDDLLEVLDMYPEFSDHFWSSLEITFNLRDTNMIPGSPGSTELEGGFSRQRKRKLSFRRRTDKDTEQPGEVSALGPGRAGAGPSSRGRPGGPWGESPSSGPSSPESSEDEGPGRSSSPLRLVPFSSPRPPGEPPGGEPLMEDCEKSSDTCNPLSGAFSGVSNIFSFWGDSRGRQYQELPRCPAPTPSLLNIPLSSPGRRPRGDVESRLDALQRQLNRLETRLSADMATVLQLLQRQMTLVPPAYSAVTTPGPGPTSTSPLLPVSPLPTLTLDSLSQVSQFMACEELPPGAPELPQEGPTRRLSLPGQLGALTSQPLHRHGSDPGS

This experiment concerns the target human ether-à-go-go-related gene (hERG) potassium channel (human, UniProt Q12809). Put plainly: primary screen, population patch clamp on CHO cells stably expressing hERG.
As to `Cc1cc(C)c(S(=O)(=O)O)c(C)n1`, the “hERG current change (%, negative = inhibition) at 1uM” value was found to be 10.9%.

On to `CNC(=O)CSc1nnc(COc2ccc(Cl)cc2)n1CCOC`, for which the “hERG current change (%, negative = inhibition) at 1uM” value was determined as 2.07%.

With `COc1ccc(Nc2ncnc3sccc23)c(OC)c1`, the “hERG current change (%, negative = inhibition) at 1uM” value is reported as 21%.

Turning to `COC(=O)c1ccc(O)c(Sc2cc(C(=O)OC)ccc2O)c1`, the “hERG current change (%, negative = inhibition) at 1uM” value came out at 16.3%.

Turning to `CCOC(=O)c1c(C)nc2ccccc2c1C.Cl`, the “hERG current change (%, negative = inhibition) at 1uM” value was 1.33%.

For `Cc1ccc(C)c(OCC(=O)Nc2ccc3c(c2)OCO3)c1C`, the “hERG current change (%, negative = inhibition) at 1uM” value is -2.9%.

For the compound `CCOc1ccc2[nH]cc(C(=O)O)c(=O)c2c1`, the “hERG current change (%, negative = inhibition) at 1uM” value is recorded as 6.23%.

Consider `COc1ccccc1N1CCN(C(c2ccccc2)c2nnnn2CCc2ccccc2)CC1.Cl` (stereo not drawn), for which the “hERG current change (%, negative = inhibition) at 1uM” value turned out to be 14.8%.

With `O=C(Nc1ccc(Cl)cn1)c1cc2c(s1)-c1ccccc1OC2`, the “hERG current change (%, negative = inhibition) at 1uM” value is listed as 11.1%.

Turning to `COc1ccc(C2C(C(=O)Nc3cc(C)on3)c3ccccc3C(=O)N2C)cc1OC` (stereo not drawn), the “hERG current change (%, negative = inhibition) at 1uM” value amounted to 5.64%.

Turning to `CN1CCN(c2ccc(S(=O)(=O)N3CCCCC3)cc2NC(=O)c2ccc(C#N)cc2)CC1`, the “hERG current change (%, negative = inhibition) at 1uM” value came out at 2.16%.

On to `NC(=O)CCCc1nc(-c2ccccc2Cl)no1`, for which the “hERG current change (%, negative = inhibition) at 1uM” value is recorded as 3.84%.

For the compound `CN(Cc1cccnc1)Cc1cn(C)nc1-c1ccc(Oc2ccccc2)cc1`, the “hERG current change (%, negative = inhibition) at 1uM” value is recorded as -0.121%.

`Cc1ccc(C)c(NC(=O)/C(C#N)=C/c2ccc(Sc3nncn3C)c([N+](=O)[O-])c2)c1`: the “hERG current change (%, negative = inhibition) at 1uM” value is recorded as 6.51%.

Consider `COc1ccc(-c2nnc(Nc3nc4c(OC)cccc4s3)o2)c(OC)c1`, for which the “hERG current change (%, negative = inhibition) at 1uM” value was 11.4%.

In the case of `O=C1C(=O)N(CCCn2ccnc2)C(c2ccc(Br)cc2)/C1=C(\O)c1ccc2c(c1)OCCO2` (stereo not drawn), the “hERG current change (%, negative = inhibition) at 1uM” value is recorded as 16.4%.

Take `COc1cc(OC)c(OC)cc1/C=N/NC(=O)CCc1c(C)n[nH]c1C`: the “hERG current change (%, negative = inhibition) at 1uM” value stood at 9.23%.

Turning to `CC(C)N(Cc1ccc(F)cc1)C(=O)c1cc2ccccc2oc1=O`, the “hERG current change (%, negative = inhibition) at 1uM” value came out at 14%.

For `O=C(CN1CCC(O)(c2ccc3c(c2)OCO3)CC1)N1CCOCC1`, the “hERG current change (%, negative = inhibition) at 1uM” value is 14.5%.

`COc1ccccc1C(=O)N/C(=C\c1cn(S(=O)(=O)N(C)C)c2ccccc12)C(=O)NCCN1CCOCC1`: the “hERG current change (%, negative = inhibition) at 1uM” value was determined as 12.8%.

For `CCCC(=O)NC(=S)Nc1ccccc1N1CCOCC1`, the “hERG current change (%, negative = inhibition) at 1uM” value is recorded as 11.1%.

On to `O=C(NCc1ccccn1)c1ccc(OC2CCN(Cc3ccc(Cl)s3)CC2)cc1`, for which the “hERG current change (%, negative = inhibition) at 1uM” value is on record as 7.77%.

Regarding `COc1ccc(Cl)cc1CN1CCN(c2nc(C)cc(C)c2C#N)CC1`, the “hERG current change (%, negative = inhibition) at 1uM” value is 5.78%.

For `COC(=O)C1=C(C)NC(=O)/C1=C\c1cc(C)n(-c2ccccc2C)c1C`, the “hERG current change (%, negative = inhibition) at 1uM” value stood at 11.8%.

The values are drawn from PMC4336329 (PLoS ONE, 2015).
